In all, about 44,000 compounds went through this assay and about 340 (0.77%) were called active. Not shown: some 5% with an inconclusive outcome. Calls follow the shape of the dose curve; as a rule, active = well fitted inhibition curve with a large enough effect; inconclusive = small, poorly fitted or top-dose-only effect; inactive = flat fitted curve, though single readings scatter. Some of the results follow.
Experiment: Acumen qHTS Assay for Inhibitors of the mTORC1 Signaling Pathway in MEF (Tsc2-/-, p53-/-) Cells: Sytravon;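 also: plate controls were DMSO for no effect and rapamycin for full effect; nearly all actives have a fitted effect of over 50% in size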
Settings: phospho-rpS6 immunofluorescence/PI, 24 h; series mostly up to 38.3 µM; activity change, negative = inhibition: at the top concentration
Procedure, shortened: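 Compounds act on Tsc2-/-, p53-/- fibroblasts carrying an empty vector for 24 h before fixation and dual staining for phospho-S6 and DNA (propidium iodide). Values are percentages of cells above a rapamycin-defined pS6/PI threshold.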

Activity change, negative = inhibition, inactive:
COCCCNc1nc2c(c(=O)[nH]c(=O)n2C)n1CC(O)COc1ccc(Cl)cc1 (stereo unspecified) 3.06%
COc1cccc(CC(=O)Nc2c(C(=O)N3CCN(c4ccccc4F)CC3)oc3ccccc23)c1 -1.18%
CCOC(=O)c1nc(NCc2ccc(Cl)cc2)c2c(C)noc2n1 -2%
CC1=C(C(=O)Nc2ccccc2C)C(c2ccccn2)n2ncnc2N1 (stereo unspecified) 0%
CCC(=O)C1=C(c2ccc(C)cc2)N(C(=O)CC)n2c(nnc2C2CCCCC2)S1 0.337%
Cc1cccc(C)c1NC(=O)CS(=O)(=O)c1nc(-c2ccc(Cl)cc2)cn1-c1ccccc1 15.1%
CC(=O)N1CCc2cc(S(=O)(=O)NC(CC(C)C)C(=O)Nc3cc(C)cc(C)c3)ccc21 (stereo unspecified) -0.828%
Cc1c(Cl)cccc1NC(=O)CCOc1ccccc1 4.69%
CCOc1ccc(Cn2c(=O)sc3ccccc32)cc1 9.36%
Cc1cccn2c(=O)c3cc(C#N)c(=O)n(-c4nnc(SCc5ccc(Cl)cc5)s4)c3nc12 0.272%
Cc1cc(C)c2c(c1)c(C)cc1nnc(SCc3ccccc3C#N)n12 0.178%
Cc1ccc(NC(=O)CN2C(=O)COc3ccc(S(=O)(=O)NC4CCCC4)cc32)cc1N(C)C -0.443%
Cc1ccc(C)c(Cn2c(=O)c3c(nc4n3CCN4c3ccccc3)n(C)c2=O)c1 9.17%
CCSc1ncc(Cl)c(C(=O)Nc2sc3c(c2C(=O)NCCCOC)CCCC3)n1 0%
COc1ccc(NC(=O)CSc2nc(-c3cccc(C)c3)[nH]c2-c2ccccc2)cc1OC -6.97%
CC(C)c1noc(-c2ccccc2OCC(=O)Nc2cccc([N+](=O)[O-])c2)n1 1.64%
CC(C)Sc1ncc(Cl)c(C(=O)Nc2ccc(S(=O)(=O)N3CCCCC3)cc2)n1 -2.51%
Cc1ccc(NC(=O)C2CCN(S(=O)(=O)c3cccc4nonc34)CC2)cc1C -9.21%
Cc1ccc(-c2cc3nc(-c4ccccc4)cc(C(F)(F)F)n3n2)cc1 5.55%
COc1cc(C2CC(=O)Oc3c2c(=O)[nH]c2ccccc32)cc(OC)c1OC (stereo unspecified) 0.513%
O=C(Oc1ccccc1F)c1nc(SCc2ccc(F)cc2)ncc1Cl -2.3%
CCOc1ccc(Nc2c(S(=O)(=O)c3ccccc3)cnc3ccc(F)cc23)cc1 -6.03%
COc1ccc(-c2nc3scc(CCNS(=O)(=O)c4ccc5c(c4)OCCO5)n3n2)cc1 -6.35%
CC(=O)N1CCc2cc(Br)cc(S(=O)(=O)CCC(=O)N3CCN(c4ccccc4Cl)CC3)c21 -21%
Cc1ccc(CN(C(=O)COc2cc(C)c(Cl)c(C)c2)c2ccccn2)o1 -0.843%
CCOc1ccc(-c2c(C)nn3c(C)c(C(=O)Nc4cc(C)cc(C)c4)cnc23)cc1OCC -9.87%
Cc1cc(C)c2sc(N3CCN(C(=O)c4ccc(N(C)C)cc4)CC3)nc2c1 0.649%
Cc1ccc(S(=O)(=O)c2c(O)cc(C)c(NS(=O)(=O)c3ccc(Cl)cc3)c2C)cc1 -9.72%
COc1ccccc1N1CCN(S(=O)(=O)c2c(C)nc3sccn3c2=O)CC1 2.49%
CC(C)c1nn2c(=O)cc(COC(=O)c3ccco3)nc2s1 -9.28%
O=C(CSc1nc(=O)[nH]c2c1CCCC2)NCc1ccccc1 -0.645%
COc1ccc(N2C(=O)CSC23C(=O)N(CC(=O)NCCc2ccccc2)c2ccccc23)cc1 (stereo unspecified) -4.44%
COc1ccccc1C(=O)Nc1ccc(C(=O)OCc2cc(=O)n3nc(C4CC4)sc3n2)cc1 0%
Cc1nn2c(C)c(C(=O)NC(C)(C)C)cnc2c1-c1ccc(F)cc1 -1.08%
Cc1c(C)c2cc3c(c(C)c2oc1=O)OCN(CCc1ccc(F)cc1)C3 -4.25%
Cc1ccc(N2CC(NC(=O)c3cc4ccccc4o3)CC2=O)cc1 (stereo unspecified) 0.384%
CCCCNC(=O)c1cc2n(n1)CCCN(Cc1ccc(C)cc1)C2=O 0%
COc1ccc(NC(=O)Cn2c(=O)n(Cc3ccccc3)c(=O)c3sc4ccccc4c32)cc1 3.44%
CCCCN(C)CCNC(=O)c1cc2c(=O)n(C)c3ccccc3c2n1C -12.8%
COc1ccc(CNC(=O)CCc2c(C)c3cc4c(C)coc4c(C)c3oc2=O)cc1OC 3.74%
CN1C(=O)c2ccccc2Sc2ccc(NC(=O)c3ccc(C(F)(F)F)cc3)cc21 -0.355%
N#Cc1ccccc1NS(=O)(=O)c1ccc(N2CCCCS2(=O)=O)cc1 0%
CCCc1nn2c(=O)cc(COC(=O)c3ccc(NC(=O)COc4ccccc4)cc3)nc2s1 3.15%
CCn1cc(C(=O)N2CCN(c3ccccc3)CC2)c(=O)c2cc(S(=O)(=O)N3CCOCC3)ccc21 -4.38%
CCC(Oc1ccc(F)cc1)C(=O)Nc1c(C(=O)c2ccc(C)cc2)oc2ccccc12 (stereo unspecified) -2.19%
COC(=O)c1cc2oc3ccccc3c2n1Cc1ccc(Cl)cc1 0.293%
COc1ccc(-c2nc3scc(CCNS(=O)(=O)c4ccc(F)cc4C)n3n2)cc1 -7.83%
COc1cccc(CN2c3ccccc3-c3nc(SCC(=O)Nc4ccccc4Cl)ncc3S2(=O)=O)c1 -6.76%
COc1ccc(Nc2cc(C(=O)NCCCN3CCN(c4ccccc4F)CC3)c3ccccc3n2)c(OC)c1 -1.06%
Cc1ccc(-c2ccc(=O)n(CCC(=O)NCCc3ccccc3)n2)cc1 -6.7%
CCN(CC)CCNC(=O)c1cc2c(=O)n(C)c3cc(Cl)ccc3c2s1 -9.72%
CCOC(=O)c1[nH]c(C)c(CCC(=O)NCc2ccc(CC)cc2)c1C 9.93%
O=C1CSC2(C(=O)N(Cc3cccc(F)c3)c3ccccc32)N1c1cccc(C(F)(F)F)c1 (stereo unspecified) -1.69%
CC(C)COc1ccc(C(=O)N2CCN(CCc3ccncc3)CC2)cc1 -4.67%
COc1ccc(N(C)C(=O)c2cn(C)c(=O)c3cc(OC)c(OC)cc23)cc1 -21.9%
Cc1ccc(Cn2c(CO)cnc2SCC(=O)Nc2ccc(C)c(Cl)c2)cc1 -6.31%
COc1ccc(NC(=O)c2ccc3nc(C(C)C)oc3c2)cc1OC -14.4%
COc1ccc(NC(=O)Cn2cc(S(=O)(=O)c3ccccc3)c(=O)c3cc4c(cc32)OCO4)cc1 -4.75%
CCN1CCc2c(sc(-n3cccc3)c2C(C)NC(=O)Nc2ccc(Br)cc2)C1 (stereo unspecified) -2.77%
CCCC(=O)OCc1cnc(C)c2oc(=O)c(C(=O)Nc3cccc(C(F)(F)F)c3)cc12 0%
COc1ccc(N(Cc2cccs2)C(=O)c2ccc(OC)c(Cl)c2)cc1 -4.73%
